Results reported in PubChem BioAssay AID504339 (National Center for Advancing Translational Sciences (NCATS), 2011).
Several values for one entry are separate records, joined by “and”; a condition that tells them apart may be missing. Equal entries are not always repeated. Among all 390,000 compounds or so, about 17,000 (4.4%) were called active. This list was built around the results that the source calls inconclusive (neither active nor inactive); the mix of calls is not that of the screen. The call rests on the fitted dose curve; in most records, active means well fitted inhibition curve with a large enough effect; inconclusive means small, poorly fitted or top-dose-only effect; inactive means no such curve, though single readings can be large or run the other way. Potencies beside an inconclusive call are fits to weak or partial responses and may not hold up.

Target: Lysine-specific demethylase 4A (Homo sapiens) (UniProt O75164)
Assay: qHTS Assay for Inhibitors of JMJD2A-Tudor Domain; further: nearly all actives have a fitted effect of over 50% in size
Conditions: AlphaScreen JMJD2A-Tudor / H3K4me3 peptide binding; series mostly up to 114 µM
Potency means the concentration at half of the fitted maximal effect; tags describe the fitted curve by direction and shape.

Chain of UniProt O75164 (O75164 whole entry, looked up, the tested form may be a part): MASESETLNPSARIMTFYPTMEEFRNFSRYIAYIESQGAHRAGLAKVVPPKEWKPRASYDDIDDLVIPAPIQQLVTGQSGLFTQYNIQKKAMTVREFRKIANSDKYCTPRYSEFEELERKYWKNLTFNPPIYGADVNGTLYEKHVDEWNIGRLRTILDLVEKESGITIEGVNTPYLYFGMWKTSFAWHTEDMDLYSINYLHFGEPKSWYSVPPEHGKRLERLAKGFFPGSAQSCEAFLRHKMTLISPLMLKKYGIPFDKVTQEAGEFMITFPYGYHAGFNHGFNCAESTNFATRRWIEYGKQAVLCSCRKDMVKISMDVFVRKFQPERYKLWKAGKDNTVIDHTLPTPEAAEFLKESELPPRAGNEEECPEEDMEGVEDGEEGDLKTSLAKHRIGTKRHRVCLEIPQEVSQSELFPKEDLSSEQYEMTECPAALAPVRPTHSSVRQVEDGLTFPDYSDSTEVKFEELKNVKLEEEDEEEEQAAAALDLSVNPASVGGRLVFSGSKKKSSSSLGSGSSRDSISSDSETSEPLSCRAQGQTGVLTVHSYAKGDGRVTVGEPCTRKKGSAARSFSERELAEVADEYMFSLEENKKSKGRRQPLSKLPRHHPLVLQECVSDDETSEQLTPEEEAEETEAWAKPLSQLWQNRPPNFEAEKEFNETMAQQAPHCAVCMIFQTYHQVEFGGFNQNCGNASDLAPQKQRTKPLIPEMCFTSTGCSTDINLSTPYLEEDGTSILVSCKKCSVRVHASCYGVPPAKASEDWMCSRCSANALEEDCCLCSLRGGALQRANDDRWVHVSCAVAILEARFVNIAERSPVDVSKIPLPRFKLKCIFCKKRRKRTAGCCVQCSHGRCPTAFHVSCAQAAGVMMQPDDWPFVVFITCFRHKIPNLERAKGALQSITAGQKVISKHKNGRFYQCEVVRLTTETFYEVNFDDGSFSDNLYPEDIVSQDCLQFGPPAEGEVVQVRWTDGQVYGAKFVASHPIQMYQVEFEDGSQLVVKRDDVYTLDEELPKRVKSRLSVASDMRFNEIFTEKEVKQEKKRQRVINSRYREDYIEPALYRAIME

Row | SMILES | Potency
1 | Cc1ccnc(SC2CC(=O)N(c3ccc([N+](=O)[O-])cc3)C2=O)n1 (stereo not drawn) | inactive
2 | S=C(N/N=C1\C2CN3CCN(C2)CC1(c1ccccc1)C3)Nc1ccccc1 | inconclusive: 39.8 µM [inhibitor, single point]
3 | COc1ccc(O)c(/C=N/c2sc(C)c(C)c2C#N)c1 | active: 79.4 µM
4 | COc1ccc(S(=O)(=O)N2CCN(c3nc(-c4cccs4)nc4ccccc34)CC2)cc1 | inactive
5 | COc1ccc(C)cc1Nc1c2c(nc3ccccc13)CCC2 | inconclusive: 56.2 µM [inhibitor, partial curve] and inconclusive: 100 µM [inhibitor, partial curve, poor fit]
6 | CCCn1nc(C(=O)Oc2ccc3c(C)cc(=O)oc3c2)c2ccccc2c1=O | inactive
7 | CN(C)c1ccc(-c2cc(O)c3ncccc3c2)cc1 | inconclusive: 3.55 µM [inhibitor, full curve]
8 | NC(=O)c1sc(=S)n2c1[nH]c(=O)c1sccc12 | inconclusive: 56.2 µM [inhibitor, partial curve]
9 | Cc1cc(C(=O)COC(=O)c2ccc(N)c([N+](=O)[O-])c2)c(C)n1-c1ccc2c(c1)OCO2 | inconclusive: 3.98 µM [inhibitor, full curve, poor fit]
10 | O=C(/C=C/c1ccco1)N1CCCC(c2ccccc2)C1 (stereo not drawn) | inconclusive: 56.2 µM [inhibitor, partial curve]
11 | Cc1ccc(CN2C(=O)C(CC(C)C)Nc3ncnc(N4CCN(c5ccccc5)CC4)c32)cc1 (stereo not drawn) | inconclusive: 15.8 µM [inhibitor, full curve, poor fit]
12 | CCOc1ccccc1CNC(=O)c1ccc2c(c1)N(CC)CCS2 | inconclusive: 14.1 µM [inhibitor, full curve, poor fit]
13 | COc1ccc(/C=C/C(=O)c2c(O)c(OC)c3occc3c2OC)cc1 | inconclusive: 5.01 µM [inhibitor, full curve]
14 | Cc1c(C(=O)N2CCCc3ccccc32)sc2nc(-c3ccccc3)cn12 | inconclusive: 39.8 µM [inhibitor, full curve, poor fit]
15 | Cc1ccc(-n2c(=O)c3oc4ccccc4c3n(Cc3ccccc3)c2=O)cc1C | inactive
16 | COCCNC(=O)c1ccc2c(=O)n(CCCN3CCCC3=O)c(=S)[nH]c2c1 | inconclusive: 20 µM [inhibitor, partial curve, poor fit]
17 | Cc1oc(-c2ccc(Cl)cc2)nc1CN1CCC(C(=O)NCCCN2CCOCC2)CC1 | inactive
18 | O=C(c1ccccc1F)N1CCN(c2ccc([N+](=O)[O-])c(NCC3CCCO3)c2)CC1 (stereo not drawn) | inconclusive: 56.2 µM [inhibitor, partial curve, poor fit]
19 | Cc1ccc(-n2cccc2/C=C2/C(=N)N3C(=NC2=O)SN=C3S(C)(=O)=O)cc1 | active: 15.8 µM
20 | COc1ccccc1Oc1nc([N+](=O)[O-])nn1CC(N)=O | inactive
21 | Cc1cccc2c1NC1(CCCC1)CC2C (stereo not drawn) | inconclusive: 56.2 µM [inhibitor, partial curve]
22 | Cc1cc(Cl)ccc1N(CC(=O)N=Nc1c(O)[nH]c2ccccc12)S(C)(=O)=O | inconclusive: 22.4 µM [inhibitor, full curve]
23 | COc1ccc(CC2(CO)CCN(Cc3cnn(-c4ccc(F)cc4)c3)CC2)cc1 | inconclusive: 89.1 µM [inhibitor, partial curve, poor fit]

Row | SMILES | Potency
24 | COc1cc(Cl)c(C)cc1NC(=O)c1c(C)oc2nc(C)nc(N3CCCC3)c12 | inactive
25 | Fc1ccc(Br)cc1/C=N/N1CCN(c2ccccc2)CC1 | inconclusive: 44.7 µM [inhibitor, partial curve]
26 | COc1ccc(/C=C2/CCc3ccccc3C2=O)cc1CN1CCOCC1 | inconclusive: 31.6 µM [inhibitor, partial curve]
27 | Cc1ccc(C(=O)N/N=C/c2ccc(-c3ccc(Br)cc3[N+](=O)[O-])o2)o1 | inconclusive: 56.2 µM [inhibitor, partial curve]
28 | Cc1ccccc1NC(=O)CSc1nn2c(=O)c(C)nnc2s1 | active: 89.1 µM
29 | O=C(Cn1c(-c2cccs2)cc2ccccc21)NCCCN1CCN(c2cccc(Cl)c2)CC1 | inconclusive: 35.5 µM [inhibitor, partial curve]
30 | Cc1ccc(-c2cc(-c3ccccc3)nc(N(C)N)n2)cc1 | inconclusive: 56.2 µM [inhibitor, partial curve]
31 | S=c1[nH]nc(CN2CCCC2)n1Cc1ccccc1 | active: 3.55 µM
32 | CN(C)C(CNC(=O)c1ccc2nccnc2c1)c1ccco1 (stereo not drawn) | inactive
33 | CCCCn1c(SCC(=O)c2ccc(OC)cc2OC)nc2cc(S(N)(=O)=O)ccc21 | inactive
34 | COc1cccc(CNC(=O)C2Cc3ccccc3CN2C(C)=O)c1 (stereo not drawn) | inconclusive: 25.1 µM [inhibitor, partial curve]
35 | COc1ccccc1NS(=O)(=O)c1cc(NC(=O)c2cccs2)ccc1N1CCCC1 | inconclusive: 28.2 µM [inhibitor, single point]
36 | C=CCn1c(SCc2csc(-c3ccc(C)cc3)n2)nnc1-c1ccccc1OC | inconclusive: 56.2 µM [inhibitor, single point]
37 | COc1ccc(C)cc1NC(=O)C1CCCN1S(=O)(=O)c1ccc2c(c1)CCC(=O)N2 (stereo not drawn) | inconclusive: 25.1 µM [inhibitor, full curve]
38 | O=[N+]([O-])c1ccc(Cl)c(/C=N/N2CCN(Cc3ccccc3Cl)CC2)c1 | inconclusive: 50.1 µM [inhibitor, partial curve]
39 | O=C(Nc1nnc(SCC(=O)N2CCOCC2)s1)C1CC(=O)N(c2ccccc2)C1 (stereo not drawn) | inactive
40 | COc1ccc(C(CNC(=O)c2oc3ccccc3c2C)N2CCCCC2)cc1 (stereo not drawn) | inconclusive: 56.2 µM [inhibitor, partial curve]
41 | CCOC(=O)CCCNC(=O)CCCNC(=O)C(c1ccccc1)c1ccccc1 | inactive
42 | O=c1c(C/C=C/c2ccccc2)c(O)ccn1CCc1c[nH]c2ccccc12 | inconclusive: 20 µM [inhibitor, full curve]
43 | COC(=O)c1ccc(NC(=S)NC2CC2)cc1 | inactive
44 | CC1=CC(=NOC(=O)/C=C/c2ccccc2)C=C(C)C1=O | inactive
45 | CCc1ccc(NC(=O)Cn2cnc3nc4c(cc3c2=O)CCCC4)cc1 | inconclusive: 50.1 µM [inhibitor, partial curve]
46 | Cc1cc(NC(=O)c2ccc(C)s2)n(-c2ccccc2)n1 | inactive

Row | SMILES | Potency
47 | O=C(O)c1ccc2c(c1)N(Cc1ccccc1F)C(=O)c1ccccc1S2=O (stereo not drawn) | inconclusive: 100 µM [inhibitor, partial curve]
48 | O=C(NC(=S)N1CCN(Cc2ccc3c(c2)OCO3)CC1)c1cccc(Br)c1 | inconclusive: 28.2 µM [inhibitor, partial curve]
49 | CC(C)c1ccc(-c2nn(-c3ccccc3)cc2C2C(C#N)=C(N)OC3=C2C(=O)CC(C)(C)C3)cc1 (stereo not drawn) | inactive
50 | CN(CC(=O)NC(=O)NCc1ccco1)Cc1nc2ccccc2c(=O)[nH]1 | inactive
51 | Cc1cc(/C=N/NC(=O)c2nn(C)cc2Cl)c(C)n1-c1cccc(Br)c1 | inconclusive: 56.2 µM [inhibitor, partial curve]
52 | COc1ccc(CNCCc2ccc(Cl)cc2)cc1OCc1ccccc1 | active: 39.8 µM
53 | Cc1cc(-n2c(SCc3ccccc3F)nc3[nH]ncc3c2=O)ccc1Cl | inconclusive: 56.2 µM [inhibitor, partial curve]
54 | O=[N+]([O-])c1ccc(C(=S)N2CCN(Cc3ccccc3)CC2)cc1 | inconclusive: 44.7 µM [inhibitor, partial curve]
55 | CCOc1cc(N2CCOCC2)c(OCC)cc1NC(=O)c1c(C)noc1C | inactive
56 | CCc1ccc2c(c1)C1(NN=C(c3ccccc3)S1)C(=O)N2 (stereo not drawn) | active: 56.2 µM
57 | C[C@H](CO)N1C[C@H](C)[C@@H](CN(C)Cc2ccc(Cl)c(Cl)c2)Oc2c(NC(=O)CCC(F)(F)F)cccc2C1=O | inconclusive: 79.4 µM [inhibitor, partial curve]
58 | COc1ccc(Cl)cc1NC(=O)C(C)n1c(=O)cc(C(F)(F)F)c2c(C)nn(C)c21 (stereo not drawn) | inactive
59 | CS(=O)(=O)c1ncc(N(Cc2ccco2)Cc2cccs2)c(C(=O)Nc2ccccc2F)n1 | inactive
60 | COc1ccc(-c2csc(NC(C)=O)n2)cc1OC | active: 56.2 µM
61 | Cc1ccc(N(CC(=O)N/N=C/c2cc(C)n(-c3ccccc3)c2C)S(C)(=O)=O)c(C)c1 | inconclusive: 50.1 µM [inhibitor, partial curve]
62 | C=CS(=O)c1sc(Cl)c(N2CCOCC2)c1[N+](=O)[O-] (stereo not drawn) | active: 50.1 µM
63 | CN(C[C@H](Cc1ccccc1)N(C[C@@H](Cc1cccc2ccccc12)N(CCc1ccccc1)N=O)N=O)N=O | inconclusive: 56.2 µM [inhibitor, partial curve]
64 | CCOc1cc(Cn2c(-c3ccc(O)c(OCC)c3)nc3ccccc32)ccc1O | inconclusive: 50.1 µM [inhibitor, partial curve, poor fit]
65 | Cc1ccc2c(Sc3ccccc3)c(C(=O)NCc3ccccc3F)[nH]c2c1 | inconclusive: 39.8 µM [inhibitor, partial curve]
66 | COc1ccc(N2CCN(C(CNC(=O)c3cccs3)c3ccco3)CC2)cc1 (stereo not drawn) | inconclusive: 56.2 µM [inhibitor, partial curve]
67 | O=C1[C@@H]2C(Cc3ccc(O)cc3)NC3(C(=O)Nc4ccc(F)cc43)[C@@H]2C(=O)N1c1ccccc1 (stereo partly drawn) | active: 79.4 µM
68 | CCC(C)C(=O)Nc1nnc(SCC(=O)NC2CCCC2)s1 (stereo not drawn) | inactive
